In the BET-seq Pho4 binding data (Le et al. 2018):
This is one part of the list. These are noisy estimates, calculated here from bound and input reads.

Molecular target: T1, Pho4 (S. cerevisiae) (UniProt P07270)
T1 sequence: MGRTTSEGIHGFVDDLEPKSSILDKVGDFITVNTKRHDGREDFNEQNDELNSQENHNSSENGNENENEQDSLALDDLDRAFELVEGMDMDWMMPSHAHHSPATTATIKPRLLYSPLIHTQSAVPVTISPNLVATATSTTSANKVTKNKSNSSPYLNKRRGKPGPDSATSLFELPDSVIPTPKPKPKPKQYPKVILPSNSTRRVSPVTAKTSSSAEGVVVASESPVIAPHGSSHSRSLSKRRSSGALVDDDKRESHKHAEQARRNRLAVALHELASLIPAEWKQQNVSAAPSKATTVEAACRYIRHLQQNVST
Experiment: relative binding free energy (BET-seq); higher = weaker binding
Settings: reference: library average

Sequence | relative binding free energy [kcal/mol]
GCTTTCACGTGTATTT | 0.28
GGCAGCACGTGTGTTG | -0.06
GGAAACACGTGGGCTG | -0.05
GTGTGCACGTGGAAGC | 0.06
GGTCACACGTGTGGAT | 0.16
ATTTCCACGTGGAGGT | -0.04
GGGTTCACGTGGGGCC | 0.23
GGTGACACGTGCCGGT | 0.01
TCGTTCACGTGACGGG | 0.39
TTTTGCACGTGTCATG | 0.13
AGGAACACGTGTAGGT | 0.03
TTTCGCACGTGAGTAG | 0.02
ATGCGCACGTGGTTTT | -0.2
TTAAGCACGTGAAAAT | 0.34
AAGGGCACGTGCTTGT | -0.16
TCTTCCACGTGGTGTT | 0.12
GGAGTCACGTGCGTAT | 0.03
GGCTGCACGTGGCAGG | 0.06
GGTAACACGTGTACTG | 0.08
TAGCACACGTGTGATT | 0.24
GGCGCCACGTGTGGCT | 0.08
GTGTTCACGTGGGCAG | 0.25
GGAGGCACGTGGGTTG | -0.21

Sequence | relative binding free energy [kcal/mol]
AGGGGCACGTGCAGGA | -0.19
AAAGGCACGTGAATGG | 0.22
CGTTGCACGTGATCGG | 0.07
AAAGGCACGTGGGATT | -0.02
GTAAGCACGTGGTGCA | -0.19
TAAGTCACGTGTTATT | 0.19
TGGACCACGTGTAGTT | 0.08
CTAGGCACGTGTTAGA | -0.09
GCGCGCACGTGGGAGT | -0.17
TGGTACACGTGTGCAA | 0.1
GATTACACGTGGGTCG | 0.04
TTACTCACGTGTGCGT | 0.24
ATAATCACGTGTGCTG | 0.11
TATTACACGTGATAAG | 0.09
TGTTTCACGTGTACGG | 0.41
GGTGGCACGTGTGGCT | 0
TACGCCACGTGGGGGT | -0.25
GGGGACACGTGAAATA | 0.44
TTTAACACGTGTGTAT | -0.07
TGTTCCACGTGGATTA | -0.02
CGACACACGTGGTGGG | 0.08
AGGCACACGTGTTGTT | -0.07
GTTAGCACGTGAGTTT | 0.3

Sequence | relative binding free energy [kcal/mol]
ATCAGCACGTGGGGTC | -0.1
TTTAGCACGTGAGTAG | 0.24
GGCCGCACGTGGGAGG | -0.11
TCGGTCACGTGAGGTG | 0.27
GTCTCCACGTGGGGGA | -0.01
CATTTCACGTGGTGGA | 0.23
CATGGCACGTGTACTG | 0.06
TATATCACGTGACGTG | 0.19
TTGAGCACGTGGCGAT | -0.13
ATTGGCACGTGACTTA | 0
AATGCCACGTGCGGTG | -0.11
TCTGTCACGTGTTAGG | 0.03
CCAGGCACGTGTTGGG | -0.02
GTGTTCACGTGAGTTG | 0.36
ATTAGCACGTGGGACT | -0.19
CTTGACACGTGAGTTA | 0.08
TGCAACACGTGTAGAG | 0.15
ATCAGCACGTGGGTGG | -0.1
GACTACACGTGTGTTG | 0.18
TTGATCACGTGGAGTT | 0.2
AGGGGCACGTGTTAAA | -0.07
AATGGCACGTGGTTGC | -0.13
TATGGCACGTGACGAT | 0.12

Sequence | relative binding free energy [kcal/mol]
AGATTCACGTGTGTGC | 0.15
TCTGCCACGTGTTGGA | 0.09
GGATTCACGTGTTCTG | 0.31
TATCGCACGTGTTTTT | 0
CTGGACACGTGAGGCT | 0.29
TGTGCCACGTGGAATT | 0.06
AGATTCACGTGCGTGG | 0.29
GTCGTCACGTGCTTTG | 0.11
GGTGGCACGTGTGCTA | 0.01
TATTACACGTGGGGTC | -0.07
TCCGGCACGTGTGTTT | -0.06
TTTTGCACGTGGAAAG | -0.02
AGTGGCACGTGCCGGA | -0.24
ATGAGCACGTGGTTGT | -0.15
GGTGTCACGTGGCAGG | -0.02
TGTTACACGTGCAGGA | 0.09
TAATTCACGTGAGTTG | 0.37
TAGTTCACGTGATTGA | 0.26
TGAAGCACGTGGTGAT | -0.12
TAATACACGTGTGATA | 0.1
GGTACCACGTGTGTTA | 0.06
AGAGTCACGTGGTGTT | 0.13
AGGCACACGTGGTATT | 0.02

Sequence | relative binding free energy [kcal/mol]
TGTTTCACGTGGTAGC | 0.35
TGGGACACGTGGGAAG | 0.08
GGGCGCACGTGGTGAG | -0.05
TAGCACACGTGGGTGG | -0.04
TTGCACACGTGGGGAT | -0.03
TGGGTCACGTGTTTTT | 0.22
GGTATCACGTGAGTAT | 0.45
ATTCGCACGTGTATGT | -0.13
GGTCTCACGTGCAGTG | 0.19
CTTGTCACGTGTGGAA | 0.1
TGTGACACGTGTACAG | 0.09
AGAGTCACGTGCGATT | 0.29
TCTTTCACGTGGTTGT | 0.14
AAGAGCACGTGGGCAG | -0.23
GGGAGCACGTGAGTAT | 0.16
ACGGTCACGTGTAGGG | 0.19
TATTCCACGTGCGTGT | 0.05
GTCATCACGTGAGGGA | 0.35
TGCGGCACGTGCGGGC | -0.07
TAGGTCACGTGGTGTC | 0.15
GGCGCCACGTGGGGGT | -0.24
TTCATCACGTGTAGGG | 0.16
GGGTACACGTGCCTGT | 0.09
